The other results are listed elsewhere or left out. Cut-off read from the data, not from the text of the source: active = 3.2 or more and inactive = the rest. Most of these values are background signal.
B1: DES_Y5 (peptide)
chain: GMSQAYSSSQR
B2: DES_Y388 (peptide)
chain: RHLREYQDLLN
B3: DCX_Y64_R59L (peptide)
chain: LNGDRYFKGIV
B4: DDX27_Y763 (peptide)
chain: KALKQYRAGPS
B5: DEGS1_Y284 (peptide)
chain: IAAEYYDNLPH
B6: DCX_Y105_I104T (peptide)
chain: GVRYTYTIDGS
B7: DDR2_Y736_Y740C_YF (peptide)
chain: MSRNLYSGDCF
B8: DCC_Y809_G805E (peptide)
chain: EEVPLYESATT
B9: CYP4B1_Y377 (peptide)
chain: ESFRLYPPVPQ
B10: DDB1_Y718_P721L (peptide)
chain: RTVPLYESLRK
B11: DDX49_Y223_R222H (peptide)
chain: QLDQHYLLVPE
B12: CYTH1_Y382_A386T (peptide)
chain: SRDPFYEMLTA
B13: DCC_Y809 (peptide)
chain: EGVPLYESATT
B14: DDR2_Y741 (peptide)
chain: YSGDYYRIQGR
B15: DDR2_Y736_YF (peptide)
chain: MSRNLYSGDFF
B16: DCX_Y105_I104T_YF (peptide)
chain: GVRFTYTIDGS
B17: DCX_Y64_N60D (peptide)
chain: RDGDRYFKGIV
B18: DES_Y388_L385P (peptide)
chain: RHPREYQDLLN

Target: SHP2 C-SH2 domain E139D
Assay: enrichment score (SH2-bound / input frequency) (ratio); bacterial display of known human phosphotyrosine sites (pTyr-Var adds point mutants) read by sequencing; higher = stronger binding; tyrosines were phosphorylated by kinases first
Conditions: peptide library: pTyr-Var
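Note: displayed peptides selected on beads carrying the immobilized SH2 domain, with library peptides lacking any tyrosine serving as negative controls.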

Enrichment score, inactive:
B1 0.724
B2 1.8
B3 0.616
B4 0.374
B5 0.994
B6 0.939
B7 0.842
B8 0.704
B9 0.826
B10 0.985
B11 0.724
B12 0.967
B13 0.734
B14 0.474
B15 1.07
B16 0.643
B17 0.973
B18 0.619

Target: SHP2 C-SH2 domain wild-type
Assay: as above
Conditions: peptide library: pTyr-Var

Enrichment score, inactive:
B1 0.687
B2 1.52
B3 0.492
B4 0.494
B5 0.752
B6 2.38
B7 0.96
B8 0.768
B9 0.625
B10 0.781
B11 0.673
B12 0.891
B13 0.579
B14 0.603
B15 0.875
B16 0.733
B17 0.858
B18 0.57

Target: SHP2 N-SH2 domain L43F
Assay: as above
Conditions: peptide library: pTyr-Var

Enrichment score, inactive:
B1 0.562
B2 1.24
B3 0.671
B4 0.402
B5 0.852
B6 0.863
B7 0.624
B8 0.646
B9 0.657
B10 0.76
B11 0.991
B12 0.877
B13 0.655
B14 0.586
B15 0.837
B16 0.707
B17 0.758
B18 0.578

Target: SHP2 N-SH2 domain T42A
Assay: as above
Conditions: peptide library: pTyr-Var

Enrichment score, inactive:
B1 0.471
B2 1.22
B3 0.6
B4 0.398
B5 0.895
B6 2.72
B7 0.586
B8 0.575
B9 0.874
B10 0.719
B11 0.565
B12 0.828
B13 0.624
B14 0.711
B15 0.87
B16 0.876
B17 0.831
B18 0.572

Target: SHP2 N-SH2 domain T52S
Assay: as above
Conditions: peptide library: pTyr-Var

Enrichment score, inactive:
B1 0.443
B2 1.73
B3 0.784
B4 0.402
B5 0.783
B6 0.995
B7 0.789
B8 0.53
B9 0.751
B10 0.651
B11 0.753
B12 1.01
B13 0.744
B14 0.441
B15 0.835
B16 0.818
B17 0.887
B18 0.451

Target: SHP2 N-SH2 domain wild-type
Assay: as above
Conditions: peptide library: pTyr-Var

Enrichment score, inactive:
B1 0.711
B2 1.84
B3 0.743
B4 0.488
B5 0.874
B6 0.771
B7 0.785
B8 0.972
B9 0.681
B10 1.03
B11 1.06
B12 0.915
B13 0.791
B14 0.668
B15 0.822
B16 0.871
B17 0.815
B18 0.661
